In the BET-seq Pho4 binding data (Le et al. 2018):
The other results are listed elsewhere or left out. Values were computed here from the reads of four pooled replicates and scatter widely.

Biological target: T1, Pho4 (S. cerevisiae) (UniProt P07270)
T1 sequence: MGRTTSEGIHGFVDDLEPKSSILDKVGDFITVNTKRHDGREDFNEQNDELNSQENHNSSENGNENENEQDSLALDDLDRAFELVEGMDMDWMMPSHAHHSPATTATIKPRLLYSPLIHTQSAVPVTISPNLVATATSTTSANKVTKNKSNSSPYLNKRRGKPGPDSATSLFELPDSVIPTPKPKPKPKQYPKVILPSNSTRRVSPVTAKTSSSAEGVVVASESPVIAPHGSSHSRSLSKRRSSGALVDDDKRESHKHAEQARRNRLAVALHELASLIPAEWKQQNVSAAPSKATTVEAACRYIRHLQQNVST
Experiment: relative binding free energy (BET-seq); higher = weaker binding
Conditions: reference: library average

Sequence	relative binding free energy
GGTATCACGTGATGGC	0.44 kcal/mol
TACATCACGTGTGTTT	0.15 kcal/mol
GTTCGCACGTGAGGTG	0.2 kcal/mol
CTGGTCACGTGTTCGT	0.17 kcal/mol
GAGGACACGTGGGTTT	0.07 kcal/mol
AAGTTCACGTGAGCTT	0.38 kcal/mol
AATTCCACGTGATTTT	0.25 kcal/mol
AGGGGCACGTGTCGAA	-0.19 kcal/mol
TTCATCACGTGTGTGG	0.21 kcal/mol
TTGTGCACGTGTCGGC	-0.12 kcal/mol
GAGTGCACGTGGTTGC	0.12 kcal/mol
ATTTACACGTGTATGA	0.22 kcal/mol
CAATTCACGTGATGGT	0.21 kcal/mol
GGGCGCACGTGCTGGG	0 kcal/mol
AGAAACACGTGAGGTA	0.41 kcal/mol
TGGTTCACGTGGCGCA	0.06 kcal/mol
GCGTACACGTGTTGGG	0.12 kcal/mol
AGTTGCACGTGAGCTG	0.16 kcal/mol
GTAGACACGTGTGTTG	-0.05 kcal/mol
TTGCGCACGTGTAAAT	0.11 kcal/mol
CTCGTCACGTGGGGGG	-0.24 kcal/mol
AATGGCACGTGAGGGG	0.15 kcal/mol
GTGTCCACGTGGTTAT	-0.06 kcal/mol
GGATGCACGTGGGGAG	-0.08 kcal/mol
CCGTGCACGTGGGGCG	-0.24 kcal/mol

Sequence	relative binding free energy
CGGATCACGTGTGGAG	0.34 kcal/mol
CTATTCACGTGGTATA	0.13 kcal/mol
GGAAGCACGTGTAAAT	0.14 kcal/mol
TTGCTCACGTGTTCTT	0.19 kcal/mol
TGCCGCACGTGAGGGT	0.09 kcal/mol
TTGAGCACGTGCCTGG	-0.13 kcal/mol
GGGAACACGTGTTCGG	0.1 kcal/mol
AAAGTCACGTGATGTA	0.08 kcal/mol
GGGATCACGTGAAGTT	0.42 kcal/mol
GTCGTCACGTGGCGCG	0.13 kcal/mol
TTTGGCACGTGGCCGA	-0.21 kcal/mol
TTATGCACGTGCAGGG	-0.03 kcal/mol
GTGTACACGTGAAATT	0.21 kcal/mol
GGCTTCACGTGGTGTC	0.34 kcal/mol
TTCGTCACGTGTAGAT	0.31 kcal/mol
AAATTCACGTGTATGG	0.21 kcal/mol
GGACACACGTGCGGGG	-0.01 kcal/mol
TGAATCACGTGGTGAC	0.28 kcal/mol
TCGGTCACGTGATCGT	0.3 kcal/mol
CCGTTCACGTGAAGGG	0.37 kcal/mol
TGGTGCACGTGGAATA	0.13 kcal/mol
ATTTACACGTGCTTGT	0.03 kcal/mol
TATCTCACGTGAGAGT	0.3 kcal/mol
AATATCACGTGAATGT	0.28 kcal/mol
AATGCCACGTGAGTGG	0.21 kcal/mol

Sequence	relative binding free energy
TTGTGCACGTGGGATT	-0.05 kcal/mol
AGGATCACGTGGACGA	0.32 kcal/mol
TGAATCACGTGGTTGC	0.18 kcal/mol
AATTGCACGTGGAGAT	-0.08 kcal/mol
CTTTGCACGTGGGTGC	-0.13 kcal/mol
CCAGGCACGTGGCGGG	-0.26 kcal/mol
TTAAGCACGTGAGTGT	0.17 kcal/mol
AGTTCCACGTGGTGGG	0.08 kcal/mol
ATCGTCACGTGTGGGT	0.15 kcal/mol
AGAGTCACGTGGTAGC	0.15 kcal/mol
GTTTGCACGTGACTGT	0.07 kcal/mol
ATATCCACGTGTTTAG	0.13 kcal/mol
GGACGCACGTGGAGGT	-0.12 kcal/mol
TGGCCCACGTGAGTGG	0.04 kcal/mol
AGGGTCACGTGTCTAT	0.2 kcal/mol
CGTGTCACGTGCGTGC	0.01 kcal/mol
GGGGCCACGTGTTTAG	-0.06 kcal/mol
GGGCGCACGTGGGGGC	-0.17 kcal/mol
TACGGCACGTGTGGCT	-0.03 kcal/mol
TATCGCACGTGTTGAG	-0.03 kcal/mol
TTTGGCACGTGGCTGT	-0.11 kcal/mol
GTTGCCACGTGATTGG	0.03 kcal/mol
GGCGGCACGTGTCGGT	-0.08 kcal/mol
AGGGACACGTGGTTTA	-0.04 kcal/mol
AGACTCACGTGGGTGG	0.1 kcal/mol

Sequence	relative binding free energy
GTTCGCACGTGGGAAT	0.04 kcal/mol
GTAAACACGTGTGGGA	0.09 kcal/mol
TGGTTCACGTGGATGC	0.08 kcal/mol
AGCGGCACGTGTTATG	-0.08 kcal/mol
GGAGTCACGTGGGATT	0.13 kcal/mol
TGGTGCACGTGCTATT	-0.09 kcal/mol
AGGGCCACGTGTGTGC	-0.15 kcal/mol
GCGGTCACGTGATGTG	0.25 kcal/mol
TTTAGCACGTGGGAAA	-0.14 kcal/mol
GGAGACACGTGGGCGG	-0.17 kcal/mol
GGCTGCACGTGTTAGG	0.11 kcal/mol
GGTGTCACGTGATGTA	0.29 kcal/mol
GGTATCACGTGTACTG	0.16 kcal/mol
GGATCCACGTGGTATG	-0.01 kcal/mol
GAGCGCACGTGGTGGT	-0.09 kcal/mol
AGGGACACGTGATTTG	0.23 kcal/mol
TTATGCACGTGGAATC	0.16 kcal/mol
AAGTTCACGTGGAGCG	0.31 kcal/mol
GAGCTCACGTGGGTGA	0.15 kcal/mol
GTTGTCACGTGCCTTT	0.2 kcal/mol
GGGTTCACGTGCTGCG	0.31 kcal/mol
TGGTTCACGTGGAATG	0.2 kcal/mol
TTGTGCACGTGAAGGT	0.25 kcal/mol
ATGTTCACGTGTTCAA	0.23 kcal/mol
TTAGGCACGTGTTAAG	-0.09 kcal/mol

Sequence	relative binding free energy
GTCCTCACGTGGTGGT	0.1 kcal/mol
TGGCTCACGTGCATGG	0.22 kcal/mol
ATTCACACGTGGGGTA	-0.11 kcal/mol
GGAGTCACGTGGGTTC	0.08 kcal/mol
AATTGCACGTGTAGGG	-0.07 kcal/mol
GGTTTCACGTGACGTG	0.25 kcal/mol
ATTGGCACGTGGCTTA	-0.19 kcal/mol
TTAGGCACGTGTTCGC	-0.14 kcal/mol
GTGTGCACGTGGGTCT	-0.1 kcal/mol
ATGGGCACGTGCTTGC	-0.19 kcal/mol
ATCGGCACGTGTGGCG	0.04 kcal/mol
TTGGGCACGTGGGGTA	-0.14 kcal/mol
TAGGACACGTGTCCGG	0.21 kcal/mol
ATTGCCACGTGTATGA	-0.02 kcal/mol
GTTGGCACGTGTGCCT	-0.02 kcal/mol
TTGGTCACGTGTATGT	0.06 kcal/mol
TTGTACACGTGAGATT	0.22 kcal/mol
GTGGGCACGTGTAATG	0.09 kcal/mol
AAATTCACGTGCGTGT	0.14 kcal/mol
CGAGTCACGTGTTTGT	0.21 kcal/mol
GGTAGCACGTGGAAGT	0.07 kcal/mol
CGTGTCACGTGGTTAG	0.03 kcal/mol
GCGGGCACGTGAGGGT	0.23 kcal/mol
AATGACACGTGGGGTG	-0.13 kcal/mol
AAAGACACGTGCGGGG	0 kcal/mol

Sequence	relative binding free energy
GGTGTCACGTGTTGTA	0.07 kcal/mol
GAATTCACGTGGGTTT	0.22 kcal/mol
TATTACACGTGCTGGT	0.17 kcal/mol
GTAATCACGTGAATGG	0.25 kcal/mol
CGTTTCACGTGGATAG	0.35 kcal/mol
TGGGTCACGTGGAATC	0.3 kcal/mol
TATGGCACGTGTTTGT	-0.1 kcal/mol
TAGTCCACGTGTGTTA	-0.11 kcal/mol
TGAGGCACGTGTATCT	-0.08 kcal/mol
TTTATCACGTGGATCT	0.12 kcal/mol
AGGAGCACGTGGATGG	-0.1 kcal/mol
TCAGGCACGTGGGAAG	-0.26 kcal/mol
GGTGACACGTGAGGCG	0.23 kcal/mol
GTAGTCACGTGATGCA	0.3 kcal/mol
ATGATCACGTGGGTGC	-0.04 kcal/mol
ATTAGCACGTGCGGAG	-0.1 kcal/mol
AGGTTCACGTGTACTG	0.15 kcal/mol
TATGTCACGTGGTAAC	-0.03 kcal/mol
TATGGCACGTGTTCAT	-0.25 kcal/mol
TGCGACACGTGTGGAA	0.14 kcal/mol
TTCAGCACGTGATTTT	0.12 kcal/mol
